Screen size: about 48,000 compounds; about 550 (1.1%) were called active. Not shown: some 4% with an inconclusive outcome. Cut-off read from the data, not from the text of the source: active = potency below about 15 µM; inconclusive = mostly about 16 µM to 33 µM; inactive = weaker than that. This is one part of the list.
Each compound was assayed against Lysosomal acid glucosylceramidase (Homo sapiens) (UniProt P04062) (assay: Glucocerebrosidase). Details: purified enzyme, resorufin glucoside fluorescence (screen aimed at inhibitors), 20 min.
Chain of UniProt P04062 (P04062 whole entry, looked up): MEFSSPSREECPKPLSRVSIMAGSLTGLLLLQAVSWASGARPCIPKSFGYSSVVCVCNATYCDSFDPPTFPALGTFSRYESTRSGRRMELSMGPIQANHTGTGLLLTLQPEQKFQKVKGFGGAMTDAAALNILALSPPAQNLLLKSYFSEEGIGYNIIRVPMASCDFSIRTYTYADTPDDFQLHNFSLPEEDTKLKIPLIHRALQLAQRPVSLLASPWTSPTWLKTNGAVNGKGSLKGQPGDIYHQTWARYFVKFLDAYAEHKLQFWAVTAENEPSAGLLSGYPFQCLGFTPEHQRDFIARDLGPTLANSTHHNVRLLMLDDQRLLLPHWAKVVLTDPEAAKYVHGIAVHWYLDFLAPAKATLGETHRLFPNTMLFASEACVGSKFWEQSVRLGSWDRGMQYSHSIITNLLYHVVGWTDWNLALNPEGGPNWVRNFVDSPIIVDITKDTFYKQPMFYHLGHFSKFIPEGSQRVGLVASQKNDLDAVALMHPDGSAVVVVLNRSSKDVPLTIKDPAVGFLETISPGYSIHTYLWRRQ
Method in brief: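 Compounds titrated against 0.2 nM normal enzyme, 30 uM resorufin beta-D-glucopyranoside substrate, citrate/phosphate buffer with taurocholate and tween-20, pH 5.9. Reaction ran 20 min at room temperature; fluorescence (Ex 548/Em 600) gave AC50.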
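Note: the screen sought inhibitors.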
Potency is the fitted concentration of half-maximal effect.

Potency, inactive:
O=C1NC(Nc2ccccn2)(C(F)(F)F)C(=O)N1c1ccc(F)cc1 (stereo not given), COc1cc(/C=C/C2=NC(=O)C(C)(C)O2)ccc1O > 76.9 µM, O=C1C(c2ccc(F)cc2)N(Cc2ccc3c(c2)OCO3)C(=O)CN1C1CCCCC1 (stereo not given) > 76.9 µM, Cc1ccc(OCCN2C(=O)c3ccccc3C2=O)c(C)c1 > 76.9 µM, Cc1ccc(-c2nnc3c4ccccc4c(C)nn23)cc1NC(=O)c1ccco1 > 76.9 µM, c1ccc(-n2ncc3c2ncn2nc(CSc4nc5ccccc5s4)nc32)cc1 > 76.9 µM, COCCNC(=O)c1ccc(Cn2c(=S)[nH]c3cc4c(cc3c2=O)OCO4)cc1 > 76.9 µM, CCCC(=O)Nc1ccccc1N1CCN(C(=O)C(C)C)CC1 > 76.9 µM, Cc1ccc(Nc2nc(Oc3ccc(=O)[nH]n3)nc(N(C)C)n2)cc1 > 76.9 µM, COc1cccc(C2NC(=O)c3ccccc3O2)c1OC (stereo not given) > 76.9 µM, O=C(CCn1c(=O)sc2ccccc21)NCc1ccc2c(c1)OCO2 > 76.9 µM, COc1cc(-n2nnnc2SCC(=O)N2CCN(c3ccc(F)cc3)CC2)c(OC)cc1Cl > 76.9 µM, Cc1ccc(Cc2cncc(O)c2)cc1S(=O)(=O)O > 76.9 µM, Cn1c(CCN2CCN(c3ccc(F)cc3)CC2)nc2cc(NC(=O)c3ccco3)ccc21 > 76.9 µM, C=CCSc1nnc(-c2c[nH]c3ccccc23)n1CCOC > 76.9 µM, CC(=O)N=c1sc(C(C)(C)C)c(C)n1C > 76.9 µM, COCc1cc(C)nc2sc(C(=O)OC)c(N)c12 > 76.9 µM, O=C(O)C1=C(C(=O)N2CCN(C(=O)c3ccco3)CC2)CCCC1 > 76.9 µM, CCCC(C(=O)NCc1ccc(OC)cc1)N(Cc1ccco1)C(=O)c1snc(C(N)=O)c1N (stereo not given) > 76.9 µM, O=C(c1ccc2c(c1)OCCO2)C1CCN(C(=O)c2ccc(F)c(F)c2)CC1 > 76.9 µM, COC(=O)c1ccccc1NC(=O)C1CC(=O)N(C2CCCCC2)C1 (stereo not given) > 76.9 µM, N#Cc1ccsc1NC(=O)CSc1ncnc2ccccc12 > 76.9 µM, O=C(CSc1nnnn1C1CCCC1)N1CCN(C(=O)c2ccco2)CC1 > 76.9 µM, O=C(Oc1ccc(N2C(=O)CCC2=O)cc1)c1ccco1 > 76.9 µM, CN(C)CCNC(=O)c1ccccc1-c1ccccc1 > 76.9 µM, CCc1[nH]nc2c1C1(C(=O)N(Cc3ccccc3)c3ccccc31)C(C#N)=C(N)O2 (stereo not given) > 76.9 µM, COc1ccc(C2C(C(=O)c3sc(C)nc3C)=C(O)C(=O)N2CCN(C)C)cc1OC (stereo not given) > 76.9 µM, CN(C)c1nc(Oc2ccc(=O)n(C)n2)nc(N2CCOCC2)n1 > 76.9 µM, COc1ccc(-c2nc(C#N)c(NCC3CCCO3)o2)cc1 (stereo not given) > 76.9 µM, CCn1cc(C(=O)O)c(=O)c2cc(F)c(N3CCN(C(=O)Nc4ccccc4)CC3)cc21 > 76.9 µM, Cc1cc(C)n(-c2ncnc3sc4c(c23)CCCC4)n1 > 76.9 µM, CC(C)Cn1c(N)c(C(=O)COC(=O)c2ccncc2)c(=O)n(C)c1=O > 76.9 µM, COC(=O)c1ccc(CSc2nnnn2C)o1 > 76.9 µM, CCOC(=O)C1CCN(C(=O)Nc2ccc(NC(=O)C3CCN(C(=O)OCC)CC3)cc2)CC1 > 76.9 µM, COC(=O)CSC1=C(C#N)C(c2ccccc2)CC(=O)N1 (stereo not given) > 76.9 µM, COc1ccc2[nH]c(=O)c(CN(C(=O)c3ccncc3)C(C)C)cc2c1 > 76.9 µM, CCN=c1sc(C(=O)NCCc2ccccc2)cc(=O)n1CC > 76.9 µM, COCC(=O)N(Cc1cc2cc(OC)ccc2[nH]c1=O)c1ccccc1OC > 76.9 µM, CCOC(=O)CSc1nc2cc(C(=O)NCc3ccco3)ccc2c(=O)n1-c1ccc(F)cc1 > 76.9 µM, C=CCNC(=O)c1c(N)n(-c2cccc(S(N)(=O)=O)c2)c2nc3ccccc3nc12 > 76.9 µM, O=C(COc1ccc(Cl)cc1Cl)Nc1noc2ccccc12 > 76.9 µM, COc1cccc(N(CC(=O)Nc2ccccc2C)S(C)(=O)=O)c1 > 76.9 µM, Cc1c(C(=O)N2CCN(c3ccccn3)CC2)sc2ncnc(N3CCN(c4ccccc4)CC3)c12 > 76.9 µM, COc1ccccc1C(=O)NCCn1ccc2ccccc21 > 76.9 µM, Cc1cc2c(=O)n(Cc3ccco3)c(SCC(=O)c3ccc(Cl)s3)nc2s1 > 76.9 µM, Nn1c(SCC(=O)Nc2ccc(F)cc2F)nnc1C1CCCCC1 > 76.9 µM, CC1Cc2ccccc2N1C(=O)C1CCN(S(=O)(=O)c2cccs2)CC1 (stereo not given) > 76.9 µM, COc1ccc(C(=O)n2nc(-c3ccco3)nc2SC)cc1OC > 76.9 µM, COc1ccccc1N1C(=O)CC(N2CCc3ccccc32)C1=O (stereo not given) > 76.9 µM, COC(=O)c1ccc(Oc2nc(Nc3ccc(F)cc3)nc(N3CCCC3)n2)cc1 > 76.9 µM, CC(C)n1nc(C(=O)OCC(=O)N(C)C2CCS(=O)(=O)C2)c2ccccc2c1=O (stereo not given) > 76.9 µM, Cc1cc(C)n(C(=O)CCC2COc3ccccc3O2)n1 (stereo not given) > 76.9 µM, COc1ccc(-c2nnc3sc(-c4ccccn4)nn23)cc1 > 76.9 µM, COc1ccc(C)cc1NC(=O)CSc1nc(SC)ns1 > 76.9 µM, CCn1c(Cc2ccccc2)nnc1SCC(=O)Nc1nc(C)c(C)s1 > 76.9 µM, Cn1c(=O)c2c(nc(N3CCCCCC3)n2CC(=O)c2ccccc2)n(C)c1=O > 76.9 µM, CCOc1ccccc1COC(=O)c1cccc(-n2cnnn2)c1 > 76.9 µM, COCC(=O)Nc1ccccc1C(=O)NC(C)C > 76.9 µM, C#CCOC(=O)c1ccccc1C(=O)OCC#C > 76.9 µM, CC(=O)c1cccc(NC(=O)CSc2nnc(-c3ccc(S(=O)(=O)N4CCCC4)cc3)o2)c1 > 76.9 µM, C=CCNC(=O)CCCCC(=O)NCC=C > 76.9 µM, CN(C)S(=O)(=O)c1cc(C(=O)NCC2CCCO2)c(Cl)cc1Cl (stereo not given) > 76.9 µM, Cc1ccc2c(c1)NCCO2 > 76.9 µM, Cc1nn(C)cc1CNC(=O)Nc1ccc(Br)cc1Cl > 76.9 µM, CC1CCCC(NC(=O)CCn2c(=O)oc3ccccc32)C1C (stereo not given) > 76.9 µM, CCc1nnc(SCc2ccc(C(=O)OC)o2)n1N > 76.9 µM, CCCc1cc(=O)[nH]c(SCC(=O)N(C)CC(=O)Nc2ccc(C)cc2)n1 > 76.9 µM, Cc1ccc(Nc2cc(C)nn2-c2nc(C)cc(C)n2)cc1 > 76.9 µM, COc1ccc(C2CC(=O)c3c(C)nc(N4CCN(Cc5ccccc5)CC4)nc3C2)cc1OC (stereo not given) > 76.9 µM, COCCn1cc(C(=O)NCc2cccs2)c2c3ccccc3n(C)c2c1=O > 76.9 µM, COCC(C)NC(=O)c1ccc(Cl)c(Cl)c1 (stereo not given) > 76.9 µM, Cc1nc(SCC(=O)Nc2ccc(F)cc2)c2oc3ccccc3c2n1 > 76.9 µM, CCCNC(=O)Cn1cnc2sc(C(=O)N3CCN(CCC)CC3)c(C)c2c1=O > 76.9 µM, CC(=N/O)/C(=N\O)c1ccc(C)o1 > 76.9 µM, C=CCN(C(=O)Nc1ccc(F)cc1)C1CC(=O)N(c2ccc(OC)cc2)C1=O (stereo not given) > 76.9 µM, Cc1ccc(-c2nnn(CC(=O)N(CC3CCCO3)C(C(=O)NC(C)(C)C)c3ccc(F)cc3)n2)o1 (stereo not given) > 76.9 µM, Cc1cc(C)n2nc(SCC(=O)N(C)c3ccccc3)nc2n1 > 76.9 µM, O=C(Cc1ccccc1)Nc1ccc(NC(=O)C2CC2)nc1 > 76.9 µM, CCN(CCCn1c(=S)[nH]c2ncccc2c1=O)c1ccccc1 > 76.9 µM, CSc1nc2ccc(NC(=O)C3CCCO3)cc2s1 (stereo not given) > 76.9 µM, CCOC(=O)CNc1nc(C#N)nc(N2CCOCC2)n1 > 76.9 µM, CCOc1ccc2[nH]c(=O)c(CN(CCCO)C(C)=O)cc2c1 > 76.9 µM, CCS(=O)(=O)Nc1cccc(C(=O)CC2(O)C(=O)Nc3ccccc32)c1 (stereo not given) > 76.9 µM, COCCNC(C)C(=O)Nc1ccc(Br)cc1 (stereo not given) > 76.9 µM, COc1cc(CSc2ncn[nH]2)c(OC)cc1CSc1ncn[nH]1 > 76.9 µM, Cc1cc2cc(C(c3nnnn3CC3CCCO3)N3CCCc4ccccc43)c(=O)[nH]c2cc1C (stereo not given) > 76.9 µM, COCCNC(=O)C(c1ccccc1)N(Cc1cccs1)C(=O)Cn1nnc2ccccc21 (stereo not given) > 76.9 µM, O=C(NCCN1CCOCC1)c1cc(S(=O)(=O)NCCCN2CCCC2=O)ccc1Cl > 76.9 µM, CCCOc1nc2c(c(=O)n(C)c(=O)n2C)n1CCC > 76.9 µM, CCC(c1nnnn1C1CCCCC1)N1CCN(C2CCCC2)CC1 (stereo not given) > 76.9 µM

From PubChem BioAssay AID360 (National Center for Advancing Translational Sciences (NCATS), 2006)
